Results on 22 molecules are retold here after PMC12136788.

T1: UNK ZnF1-3 (human, UniProt Q9C0B0 31-174)
T1 sequence: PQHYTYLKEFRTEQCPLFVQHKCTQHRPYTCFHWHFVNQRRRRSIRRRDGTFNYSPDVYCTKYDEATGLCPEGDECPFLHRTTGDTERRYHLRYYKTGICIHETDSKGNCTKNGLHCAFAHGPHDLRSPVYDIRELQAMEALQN

B1: chr1:212156110:212156111:-_ENSG00000143493_ENST00000366992|hu_mus|motif|central (ssRNA)
RNA: GGGAGUUCUACAGUCCGACGAUCUCCAUGAGCUGCGAUGCCCCUGUUGCUAUGGUAACAGCAUUCUUGAGCUAAUUUGACGGAAUCAGAAGAUCUGGGGGAAGAGCCUACAUUUCCGGGAACUACACUGAAGUAAUGUUUAAUCAACAGAGGAUUGAGCAUCA
B2: chr14:28285125:28285126:+_ENSMUSG00000040651_ENSMUST00000022450|mus_mus|FALSE|FALSE (ssRNA)
RNA: GGGAGUUCUACAGUCCGACGAUCCUCAGAAAGGCGAUUCAUCUUCUCUUGUGCUGAAAAGAUAGGUGUGGAAAUUGCACUAACAUAUGAAACAUUCUUCUCCUUCAAAAUCUCUUCUACCUUCCUAGAGAAAAGAUGGAACUCCAACAGAGGAUUGAGCAUCA
B3: chr5:135508174:135508175:+_ENSG00000113658_ENST00000545279|hu_hu|FALSE|FALSE (ssRNA)
RNA: GGGAGUUCUACAGUCCGACGAUCACUAGUAGAAGAUGCAUGAAAAGCUUCUCCAACACGAUUGUUUAAUUCAUAGUAGACUAUUGAACACCAAUGUUUAGGCUCUUCAUAGGCAACAGGCUGAACAUCCCUGCUGGAUAUACUCAACAGAGGAUUGAGCAUCA
B4: chr1:60041781:60041782:+_ENSMUSG00000041040_ENSMUST00000036540|mus_hu|mus_mus_mus_hu_False|28_108 (ssRNA)
RNA: GGGAGUUCUACAGUCCGACGAUCAAGAGGAGUGAAUUAAAGUAAAUGCAGUAGUGGCAAAUUUUCUUUUAUUUUCCUUCACAAAAGAAAAUCUUUAUAACCCAGUCCAAUCCCAGAACAUAGUGAAAGCUAUAAAUUCUGACUCAACAGAGGAUUGAGCAUCA
B5: chr2:153581767:153581768:+_ENSMUSG00000027479_ENSMUST00000028981|mus_hu|FALSE|FALSE (ssRNA)
RNA: GGGAGUUCUACAGUCCGACGAUCCACAGGAAUUAUUUUGUCAACACCCAUUCUCUUAAAACCUGCUUGUAGUAUUUUGAAGUUCUGGAUGUACUCGUGUUCUAGCUUAGCUUGGAAUUUCACUUUCUUCAAGGCAAUGGAGCCCAACAGAGGAUUGAGCAUCA
B6: chr11:77340908:77340909:-_ENSG00000074201_ENST00000525064|hu_mus|FALSE|FALSE (ssRNA)
RNA: GGGAGUUCUACAGUCCGACGAUCGUUUGGAUCCCUGGACACCGCAUGUAAACUAAUGGUGGGGUAUUCCAGUGAGAAUCCUAAUCCCGAACCAUCUAACCAGGACAGGCGGCUCUCCGCGAUGUAAAGCGUGCCGGUGCCGAGCAACAGAGGAUUGAGCAUCA
B7: 122144004_122144124_3561_3pUTR_ENSG00000114030_ENST00000344337|human|control|control (ssRNA)
RNA: GGGAGUUCUACAGUCCGACGAUCCACACUCUUGGCUGAUAAAUGUCCUUUGUCUUUGACUCUUUCUAGUUUGAAUGAAGUGGAUUUUUUAAAAGUUUAAAUCAGGUCACAUAAGUUGGCUGCUUAAAUAACAUCAUGAUGAGGCAACAGAGGAUUGAGCAUCA
B8: 100373906_100380083_1001_CDS_ENSG00000136925_ENST00000341170|human|control|control (ssRNA)
RNA: GGGAGUUCUACAGUCCGACGAUCGACUUCCACAUAAAGUCUGGUAGCCAAUUUGCUUCCACCAACUGUCCCAUUGAUUCCUUCUGCAGCAAUUCGAAUCUUGCCUGUGAGGUGCAGGUGCUGACACAGAGCUGUCUGCCAGGCCAACAGAGGAUUGAGCAUCA
B9: chr1:39494564:39494565:+_ENSG00000168653_ENST00000372967|hu_hu|hu_hu_hu_mus_True|48_68 (ssRNA)
RNA: GGGAGUUCUACAGUCCGACGAUCAUGCAUUCGCCUCAUCGUUUUGUACCGAAGCAAGCACUCUUCGAAAUCAUCAUACUCUAUCUUGCACUCUUUCUUCGCCCGGGUCCCACCGAUCCCGUGUGCACACUCUAUCCACUCUUUCAACAGAGGAUUGAGCAUCA
B10: chr2:9570881:9570882:+_ENSG00000119203_ENST00000238112|hu_mus|hu_hu_hu_mus_False|58_98 (ssRNA)
RNA: GGGAGUUCUACAGUCCGACGAUCACUUGUCUUCUGAAGAAACCAGGGCAGGGCUCCACAGUGAUCCAAAUGGAAAUGACUAAUUAACAGAAGGUCGAUCUCAGCUGGGUCGAUAAGGUCAAUGUAAGGAAGGGCAUCCAUUCCCAACAGAGGAUUGAGCAUCA
B11: 140561975_140562095_3098_CDS_ENSMUSG00000036622_ENSMUST00000037055|mouse|control|control (ssRNA)
RNA: GGGAGUUCUACAGUCCGACGAUCCACACUCAGCAGCGCCCCUGGCGGCCGCGCUCGCACCAAGGUCAGUGCAGGGCCUGUGCGGCUCAUGAGCACCGCAACCGUGGUGGUGAUGACCAGGUCAAUGGCCAAGAACUGUAGGUCCAACAGAGGAUUGAGCAUCA
B12: chr7:106468345:106468346:+_ENSMUSG00000055407_ENSMUST00000127492|mus_mus|FALSE|FALSE (ssRNA)
RNA: GGGAGUUCUACAGUCCGACGAUCACCAAACAUUGCUUGAGGAACCACGGUCAGUUUUGUCCAGUACACUUGAGAGACAGAAUAAGACCUGGAGAGCUUUGUUUGUAAACAGUAGAAAUUAAAGGGCAUUUCUUGUGAGUGGAGCAACAGAGGAUUGAGCAUCA
B13: chr15:57523399:57523400:+_ENSG00000140262_ENST00000343827|hu_hu|motif|central (ssRNA)
RNA: GGGAGUUCUACAGUCCGACGAUCAUCUUGCAUAAAGAAAGUGCUAGCGAACAUACUGGUUGGUGGCUUAGGAGAUGGAUAACGGGGAGAUUCACGGUUGAAAUCAUCUGAAUUUGGGGAUGGUGCAUAUACCGUUUUCCCAUUCAACAGAGGAUUGAGCAUCA
B14: chr12:493273:493274:-_ENSG00000073614_ENST00000399788|hu_mus|hu_hu_hu_mus_False|38_58 (ssRNA)
RNA: GGGAGUUCUACAGUCCGACGAUCUUUUCUCUCCACCACAGGGAUCUUCAAUGUAGAUCCUUGAAGUUCCCAAAAUUUUGCUAGUUGAUCCAAGAAGUCCAAUCUCACUCUAGUCAUUGCCUCAAGUUCAUUCAGGCGCUGGACCAACAGAGGAUUGAGCAUCA
B15: 13810621_13810741_1690_CDS_ENSMUSG00000022682_ENSMUST00000023363|mouse|control|control (ssRNA)
RNA: GGGAGUUCUACAGUCCGACGAUCCACACAAGGGUCAAAGGGGAAGAAAGUGUCCAGUGGGUUGGUGCAGGUCUGCACGGAGUCUCCACCAGCGGUGCUGCGGAUAACGGGGAGCAUCUGGCGACUGUUCCUCUCCAUGAUGGUCAACAGAGGAUUGAGCAUCA
B16: chr17:57652765:57652766:+_ENSG00000108406_ENST00000251241|hu_mus|motif|central (ssRNA)
RNA: GGGAGUUCUACAGUCCGACGAUCAUCAUAAUCAUAGUCAACAGACUCCGCCAUCUGAAAGAGCAGCUCGCAACUCUUCUCGGUCUCAAACUGGCCAGUCAGAAAAACUAAGAUGUCUCCAGCCAUUUCAUUCAAAUGAAUAUCCAACAGAGGAUUGAGCAUCA
B17: chr2:160604994:160604995:+_ENSG00000136536_ENST00000409591|hu_mus|FALSE|FALSE (ssRNA)
RNA: GGGAGUUCUACAGUCCGACGAUCUCUUGAAGACUCAUCCCUUCCCUCUCGCCUCCUUCUCGAGAACAAAGGUGUGCAUCUAUUUCUAAGUGAAGAAGACAACCAUGGUCCUGAAUUUCUACCUUCUGAUUCUUGGUUAAAAUUCAACAGAGGAUUGAGCAUCA
B18: chr12:21919153:21919154:-_ENSG00000121361_ENST00000240662|hu_mus|motif|central (ssRNA)
RNA: GGGAGUUCUACAGUCCGACGAUCAUACAGGGGGCUACGCUUGUCAAUCACGUGGCAGAUGAUCAAUGGGGCCACGGGGAAGAUAUUAUUGCUCUCGAUGGGAUUAUCAACAGGAAUGUCCUGCUGAUGAAUAGGCACCACCUCCAACAGAGGAUUGAGCAUCA
B19: chr12:32445735:32445736:+_ENSMUSG00000035933_ENSMUST00000036862|mus_mus|motif|central (ssRNA)
RNA: GGGAGUUCUACAGUCCGACGAUCUCGAGCUCUUGCAAUAAAGAGUAGAUCAUUCUCUAUUACUUCUAUUCCAGAAAGAUCGGUUCCUUGAGAAAGAUAAUCAAGUUCAUUGAGACUCUGAGCAGCUUUUGUUAUCUCUCUACUCAACAGAGGAUUGAGCAUCA
B20: chr2:48026839:48026840:+_ENSG00000116062_ENST00000540021|hu_hu|hu_hu_hu_mus_False|38_108 (ssRNA)
RNA: GGGAGUUCUACAGUCCGACGAUCAUAGUGUGCCACUAGCGUCCUAAAUCUGGAACAGUGGCGGUCAUCCGAAAACUGGCCGAUGAAAAACUUGCCCAGUGAAGUAUCCACAAAGCAAACACCAUACACACGAGUGUGACCAGACAACAGAGGAUUGAGCAUCA
B21: chr7:30948173:30948174:-_ENSMUSG00000037029_ENSMUST00000062181|mus_hu|FALSE|FALSE (ssRNA)
RNA: GGGAGUUCUACAGUCCGACGAUCCCCAACUAAGUCCCUUGAUGAUUCUUUCCUACACAACCUCCCUCAUGAUUUCAGUCCAGGUUGUGUUUCAAACUGAAAACUUCAAAAAGGUGUGGCCUUAAAACAAAUACGAUCUGAGAACAACAGAGGAUUGAGCAUCA
B22: chrX:98862621:98862622:+_ENSMUSG00000034160_ENSMUST00000044475|mus_hu|mus_mus_mus_hu_False|8_58 (ssRNA)
RNA: GGGAGUUCUACAGUCCGACGAUCCUGCAUCUCCUUUAGAGUGUUUCCCAUAUUAGAGUAGGCAUCAGCAAAGGUAGGACUAAUUCGAAUAGCCUCCUUAUAAUGCAUCAGAGCUUCCUGCAGUUUUCCCUGCUGUUGCAGUACCAACAGAGGAUUGAGCAUCA

The list shows a part of the results.

The test has as its target T1, UNK ZnF1-3. As to the kind of experiment: nsRBNS (natural sequence RNA bind-n-seq); RBNS binding buffer (assumed for nsRBNS): 25 mM Tris pH 7.5, 150 mM KCl, 3 mM MgCl2, 0.01% Triton X-100, 500 ug/ml BSA, 20 U/ml SUPERase-In, 4 C; UNK is unkempt and MSI1 is Musashi-1; names of the RNAs are library labels; protein concentration not given here; high values mean tight binding.
Consider B1, for which the binding signal was 1.55 enrichment R.

For the molecule B2, the binding signal stood at 1.01 enrichment R. B3 had a binding signal of 2.02 enrichment R. Take B4: the binding signal was 0.616 enrichment R. Molecule B5 returned a binding signal of 0.859 enrichment R. To B6 belongs 0.705 enrichment R. B7 yielded a binding signal of 1.15 enrichment R. To B8 belongs 0.99 enrichment R; to B9, 0.681 enrichment R; to B10, 1.35 enrichment R. With B11 the figure was 0.722 enrichment R. As for B12, the binding signal came out at 1.31 enrichment R. As for B13, the binding signal was 1.17 enrichment R.

As for B14, the binding signal is 0.895 enrichment R. To B15 belongs 1.12 enrichment R; to B16, 1.04 enrichment R; to B17, 1.26 enrichment R. With B18 the figure was 0.876 enrichment R; with B19, 0.716 enrichment R; with B20, 1.07 enrichment R. In turn, B21 returned a binding signal of 0.883 enrichment R. With B22 the figure was 0.958 enrichment R.
